From PubChem BioAssay AID360 (National Center for Advancing Translational Sciences (NCATS), 2006)
The campaign covered roughly 48,000 compounds. About 550 (1.1%) were called active. Another 4% or so got no clear call; they are omitted. No stated cut-off is given here; in the data, active means potency below about 15 µM; inconclusive means mostly about 16 µM to 33 µM; inactive means weaker than that. This is one part of the list.

target: Lysosomal acid glucosylceramidase (Homo sapiens) (UniProt P04062); test: Glucocerebrosidase; conditions: purified enzyme, resorufin glucoside fluorescence (screen aimed at inhibitors), 20 min;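 further: the screen sought inhibitors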
UniProt P04062, sequence (P04062 whole entry, looked up): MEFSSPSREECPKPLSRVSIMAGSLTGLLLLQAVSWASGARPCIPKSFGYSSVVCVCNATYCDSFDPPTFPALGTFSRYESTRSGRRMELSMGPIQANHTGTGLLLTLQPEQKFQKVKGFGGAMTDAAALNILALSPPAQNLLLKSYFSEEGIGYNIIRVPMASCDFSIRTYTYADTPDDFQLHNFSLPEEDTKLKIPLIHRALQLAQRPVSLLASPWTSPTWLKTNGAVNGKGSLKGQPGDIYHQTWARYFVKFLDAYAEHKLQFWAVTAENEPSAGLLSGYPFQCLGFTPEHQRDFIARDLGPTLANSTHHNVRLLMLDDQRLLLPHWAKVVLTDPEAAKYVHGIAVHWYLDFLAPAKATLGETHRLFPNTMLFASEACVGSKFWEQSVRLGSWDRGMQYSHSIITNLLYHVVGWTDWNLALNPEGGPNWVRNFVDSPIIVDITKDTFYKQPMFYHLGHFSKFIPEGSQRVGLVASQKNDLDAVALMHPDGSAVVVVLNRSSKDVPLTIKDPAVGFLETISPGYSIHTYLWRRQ
Outline: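 Normal human glucocerebrosidase (0.2 nM final) was assayed with resorufin β-D-glucopyranoside (30 uM final) in 50mM citric acid/KH2PO4, 10mM sodium taurocholate, 0.01% tween-20, pH 5.9. Compounds were titrated; fluorescence (Ex 548, Em 600) read after 20 min at RT.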
Potency means the concentration at half of the fitted maximal effect.

| SMILES | Potency |
| --- | --- |
| CCOCCCNS(=O)(=O)Cc1ccccc1 | inactive: > 76.9 µM |
| O=C(Nc1cc(C(=O)N2CCOCC2)cc(C(=O)N2CCOCC2)c1)c1cc(F)c(F)cc1Cl | inactive: > 76.9 µM |
| COc1cccc(C2C(C(=O)c3sc(C)nc3C)=C(O)C(=O)N2CCN2CCOCC2)c1 (centres undefined) | inactive: > 76.9 µM |
| O=C(CSc1ncccc1C(=O)O)NCCC1=CCCCC1 | inactive: > 76.9 µM |
| Cc1ccc(S(=O)(=O)Cc2cccc(C(=O)N3CCOCC3)c2)cc1 | inactive: > 76.9 µM |
| O=C(Cc1cccs1)Nc1ccccn1 | inactive: > 76.9 µM |
| COc1cc(-c2c(C#N)c(N)nc3c2CCCC3)ccc1O | inactive: > 76.9 µM |
| Cc1nnc(N(C)C(=O)c2cccnc2)s1 | inactive: > 76.9 µM |
| CCc1nc2c(sc3nc4c(cc32)COC(C)(C)C4)c(=O)n1Cc1ccco1 | inactive: > 76.9 µM |
| CC1(C)Cn2c(nnc2-c2cccc(O)c2)S1 | inactive: > 76.9 µM |
| Cc1ccc(C)n1-n1cnc2scc(-c3cccs3)c2c1=O | inactive: > 76.9 µM |
| CC(C)CC(=O)Nc1ccc2oc(-c3ccncc3)nc2c1 | inactive: > 76.9 µM |
| N#Cc1c(NC(=O)c2ccc(Br)o2)n(-c2ccccc2)c2nc3ccccc3nc12 | inactive: > 76.9 µM |
| CC(Oc1ccccc1)C(=O)OCC(=O)NC(=O)NCc1ccco1 (centres undefined) | inactive: > 76.9 µM |
| CCOC(=O)N1CCN(S(=O)(=O)N(C)C)CC1 | inactive: > 76.9 µM |
| O=C(CSc1nnc(-c2ccco2)n1-c1ccccc1)N1CCOCC1 | inactive: > 76.9 µM |
| O=C(O)Cn1c(C(F)(F)F)nc2ccccc21 | inactive: > 76.9 µM |
| CC(C)(C)NC(=O)c1ccc2c(c1)C(=O)N(C1CCCCC1)C2=O | inactive: > 76.9 µM |
| COc1ccccc1NC(=O)CN1CCCCC1 | inactive: > 76.9 µM |
| O=S(=O)(Nc1ccc2c(c1)OCCO2)c1cccc2cccnc12 | inactive: > 76.9 µM |
| O=C(OCc1nnc(-c2ccccc2)o1)c1ccc2c(c1)C(=O)N(CCc1ccccc1)C2=O | inactive: > 76.9 µM |
| CC(C)(C)n1nnnc1C(c1cccc(C#N)c1)N1CCC(Cc2ccccc2)CC1 (centres undefined) | inactive: > 76.9 µM |
| c1ccc(-n2c(SCc3nc(-c4cccs4)no3)nnc2-c2ccco2)cc1 | inactive: > 76.9 µM |
| Cc1nnc(SCC(=O)Nc2nc3c(s2)CC(C)CC3)s1 (centres undefined) | inactive: > 76.9 µM |

| SMILES | Potency |
| --- | --- |
| O=C(CN1C(=O)C2C3C=CC(C3)C2C1=O)NCCc1ccccc1Cl (centres undefined) | inactive: > 76.9 µM |
| CCS(=O)(=O)N1CCN(Cc2ccccc2OC)CC1 | inactive: > 76.9 µM |
| CN(C)C(CNC(=O)NC1CCCCC1)c1cccnc1 (centres undefined) | inactive: > 76.9 µM |
| COc1cc(NC(=O)Cc2ccc(Cl)cc2)ccc1NC(=O)c1ccco1 | inactive: > 76.9 µM |
| O=C(O)c1ccccc1C(=O)Nc1ccccc1 | inactive: > 76.9 µM |
| CCCCN(C)CCCNC(=O)c1ccc2c(c1)NC(=O)C(N1CCOCC1)S2 (centres undefined) | inactive: > 76.9 µM |
| CCn1c(=O)c2ccccc2n2c(SCC(=O)N3CCCc4ccccc43)nnc12 | inactive: > 76.9 µM |
| O=C(NCC1CCCO1)c1ccc(/C=N/O)nc1 (centres undefined) | inactive: > 76.9 µM |
| O=C(CCN1CCCCC1)c1ccc2c(c1)OCCO2 | inactive: > 76.9 µM |
| Cc1ccc2c(Cl)cc(Cl)c(OCC(=O)NC(=O)NCc3ccco3)c2n1 | inactive: > 76.9 µM |
| COCCn1nnnc1C(c1cccs1)N1CCN(c2cc(C)ccc2C)CC1 (centres undefined) | inactive: > 76.9 µM |
| CCc1ccc2[nH]cc(C(=O)N3CCCCCC3)c(=O)c2c1 | inactive: > 76.9 µM |
| CCC(=O)N1CCc2cc(S(=O)(=O)NCCC(=O)Nc3ccccc3C)ccc21 | inactive: > 76.9 µM |
| CCOC(=O)c1cc(C)n(-n2cnnc2)c1C | inactive: > 76.9 µM |
| CCOc1ccccc1-n1c(SCC(N)=O)nnc1-c1cccnc1 | inactive: > 76.9 µM |
| CCOC(=O)c1sc(=NC(=O)c2ccc(S(=O)(=O)N3CCOCC3)cc2)n(C)c1C | inactive: > 76.9 µM |
| O=C(CN(C1CC1)S(=O)(=O)c1ccc(S(=O)(=O)N2CCCCCC2)cc1)Nc1ccccc1 | inactive: > 76.9 µM |
| c1cc2c(cc1Cn1cnnn1)OCO2 | inactive: > 76.9 µM |
| c1ccc(CCNc2nc3ccccc3n3nnnc23)cc1 | inactive: > 76.9 µM |
| COc1ccccc1NC(=O)N(Cc1ccco1)Cc1cc2ccc(C)c(C)c2[nH]c1=O | inactive: > 76.9 µM |
| Cc1cc(C)n(-c2ccc(C(=O)Nc3sccc3C(N)=O)cc2)n1 | active: 14.9 µM |
| Cc1cc(C)nc(N2CCC(C(=O)NCC3CCCCC3)CC2)n1 | inactive: > 76.9 µM |
| Cc1ccc(C2=Nc3ccccc3NC(C)(c3ccc(C)o3)C2)o1 (centres undefined) | inactive: > 76.9 µM |
| Nc1ccc2c(c1)ncn2CCCn1cnc2cc(N)ccc21 | inactive: > 76.9 µM |

| SMILES | Potency |
| --- | --- |
| O=C(Nc1ccc(F)c(F)c1)NC1CCCCC1 | inactive: > 76.9 µM |
| O=C(O)C(c1ccccc1)N1CCCC1 (centres undefined) | inactive: > 76.9 µM |
| COc1ccc(Cl)cc1NC(=O)CSc1nnc(COc2ccccc2)n1C | inactive: > 76.9 µM |
| O=C(NCCN1CCOCC1)c1cc2c(=O)n3ccccc3nc2n1Cc1ccccc1 | inactive: > 76.9 µM |
| O=C(NCCCN1CCOCC1)c1cc(-c2ccc(Cl)cc2)on1 | inactive: > 76.9 µM |
| O=S1(=O)NC2CCCCCN2c2ccc(F)cc21 (centres undefined) | inactive: > 76.9 µM |
| CC(C)NC(=O)CSc1nc2ccccc2n1-c1ccccc1 | inactive: > 76.9 µM |
| COC(=O)c1ccc2c(c1)N(Cc1nc(-c3ccc(Cl)cc3)oc1C)C(=O)C1CCCN21 (centres undefined) | inactive: > 76.9 µM |
| COc1ccccc1N1CCN(S(=O)(=O)CC23CCC(CC2=O)C3(C)C)CC1 (centres undefined) | inactive: > 76.9 µM |
| O=C(C1COc2ccccc2O1)N1CCN(c2ccccc2)CC1 (centres undefined) | inactive: > 76.9 µM |
| CC(=O)CC1OC(=O)C(Br)=C1NCc1ccccc1 (centres undefined) | inactive: > 76.9 µM |
| COc1ccc(-n2c(C)cc(C(=O)COc3ccc(-n4cnnn4)cc3)c2C)cc1 | inactive: > 76.9 µM |
| Cc1ccc2c(c1C)NC(C(=O)O)C1CC=CC21 (centres undefined) | inactive: > 76.9 µM |
| CC1CCc2nc(NC(=O)C3CCCO3)sc2C1 (centres undefined) | inactive: > 76.9 µM |
| O=C(C1CC1)N1CCc2cc(Br)cc(S(=O)(=O)N3CCCCCC3)c21 | inactive: > 76.9 µM |
| Cc1cc(CNC(=O)Nc2ccc3c(c2)OCO3)nn1C | inactive: > 76.9 µM |
| Nc1ccccc1OCCOCCOCCOc1ccccc1N | inactive: > 76.9 µM |
| COc1cc(C(=O)OCc2cc3ccccc3[nH]c2=O)cc(OC)c1OC | inactive: > 76.9 µM |
| O=C(Cn1cccc1)NCc1cccs1 | inactive: > 76.9 µM |
| CCOc1cc(NC(=O)c2ccco2)c(OCC)cc1NC(=O)COc1ccccc1 | inactive: > 76.9 µM |
| CC(C)(C)c1cc(NC(=O)c2cccnc2)no1 | inactive: > 76.9 µM |
| COc1ccc(-c2cc(C(F)(F)F)n3ncc(C(=O)O)c3n2)cc1OC | inactive |
| Cn1c(CCCNC(=O)c2cccs2)nc2ccccc21 | inactive: > 76.9 µM |
| N#CC1=C(N)C(C#N)(C#N)C(c2cccnc2)C2COCC=C12 (centres undefined) | inactive: > 76.9 µM |

| SMILES | Potency |
| --- | --- |
| CC1=Nn2c(nnc2-c2ccccc2Cl)SC1 | inactive: > 76.9 µM |
| O=C(CSc1nnc(NC(=O)C2CC2)s1)Nc1ccc(F)cc1 | inactive: > 76.9 µM |
| COc1cc(NC(=O)Nc2cccc(C(C)=O)c2)cc(OC)c1OC | inactive: > 76.9 µM |
| O=C1CCC(=O)N1CCOP1(=O)COc2ccccc2OC1 | inactive: > 76.9 µM |
| C/C(N)=C(/C#N)C(=O)COC(=O)c1ccncc1 | inactive: > 76.9 µM |
| Cc1nnc(NC(=O)CCCN2C(=O)c3ccccc3C2=O)s1 | inactive: > 76.9 µM |
| C=CCn1c(SCCC(=O)O)nnc1-c1cccs1 | inactive: > 76.9 µM |
| O=CN1CCC(=O)N(Cc2ccccc2)c2ccccc21 | inactive: > 76.9 µM |
| Cc1c(C(=O)N2CCN(C)CC2)oc2ccc(S(=O)(=O)N3CCOCC3)cc12 | inactive: > 76.9 µM |
| CN(C)Cc1c(O)ccc2[nH]cnc12 | inactive: > 76.9 µM |
| COC(=O)c1ccc(OC(=O)c2ccc(OCc3c(C)noc3C)c(OC)c2)cc1 | inactive: > 76.9 µM |
| CCOC(=O)CC(=O)CSc1ccc2nnc(-c3ccccc3)n2n1 | inactive: > 76.9 µM |
| CC(C)CCN1CC(C(=O)NCc2ccccc2)CC1=O (centres undefined) | inactive: > 76.9 µM |
| CCCC(=O)Nc1ccccc1NC(=O)CCC | inactive: > 76.9 µM |
| Cc1c(NC(=O)c2ccccc2N)cccc1C(=O)O | inactive: > 76.9 µM |
| CC(=O)c1ccc(N2CCN(C(=O)c3ccc(NC(=O)C4CCCO4)cc3)CC2)cc1 (centres undefined) | inactive: > 76.9 µM |
| C=CCOc1ccccc1/C=N/O | inactive: > 76.9 µM |
| CN(C)CCNC(=O)C(C(=O)c1ccc(F)cc1)n1ccccc1=O (centres undefined) | inactive: > 76.9 µM |
| Cc1ccc(-c2noc(CSc3nnc(-c4ccccc4)n3C)n2)cc1 | inactive: > 76.9 µM |
| COc1ccc(CCNC(=O)c2c(O)c3c([nH]c2=O)CCCC3)cc1 | inactive: > 76.9 µM |
| CC1CC(c2ccccc2)n2nc(N3C(=O)c4ccccc4C3=O)nc2N1 (centres undefined) | inactive: > 76.9 µM |
| Cc1csc2nc(CNC(=O)c3cccc(C(F)(F)F)c3)cn12 | inactive: > 76.9 µM |
